In all, about 390,000 compounds went through this assay and about 930 (0.24%) were called active. Inconclusive means that the source gave no clear call. Such entries were picked first, then a sample of the others. Calls follow the shape of the dose curve; as a rule, active = well fitted activation curve with a large enough effect; inconclusive = small, poorly fitted or top-dose-only effect; inactive = no such curve, though single readings can be large or run the other way. Where the call is inconclusive, the potency comes from a doubtful curve fit.
Assay: qHTS for Suppressors of FUS Proteinopathy: Primary screen using FUS-linked yeast assay; also: nearly all actives have a fitted effect of over 55% in size
Conditions: S. cerevisiae FUS-expressing, OD600, 24 h; Potency: growth rescue; series mostly up to 76.6 µM
Summary of the method: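 Yeast expressing FUS under galactose induction, OD 0.005 in 2% galactose medium; compounds in a dilution series, 24 h at 30C. Growth rescue by absorbance at 600 nm; CP55940 positive control, DMSO negative.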
With `Cc1cccc(NS(=O)(=O)c2ccc(C(=O)N3CCN(c4ccccc4O)CC3)cc2)c1C` the Potency was active: 31.6 µM.
With `COc1ccc(-c2cnc(C)o2)cc1S(=O)(=O)Nc1ccc(C)c(F)c1` the Potency was “inactive”.
For `CN1/C(=C\C=C2/C(=O)Oc3ccccc3C2=O)C(C)(C)c2ccccc21`, the Potency was inconclusive: 12.6 µM [activator, partial curve].
In the case of `CC(=O)Nc1cccc(NC(=O)CSc2nnc(Cc3cccn3C)n2-c2ccc(C)cc2)c1`, the Potency is reported as inconclusive: 39.8 µM [activator, partial curve, poor fit].
For `CC(C)c1[nH]nc2c1C(Cc1ccccc1)C(C#N)=C(N)O2` (configuration not stated), the Potency was inconclusive: 10 µM [activator, partial curve, poor fit].
For `COc1ccc(NC(=O)c2ccc3c(c2)C(=O)N(CC2CCCO2)C3=O)cc1` (configuration not stated), the Potency was inconclusive: 2.82 µM [activator, full curve, poor fit].
With `CCOc1ccccc1NC(=O)Cn1c(=O)ccc2cc(S(=O)(=O)N3CCC(C)CC3)ccc21` the Potency was inconclusive: 35.5 µM [activator, partial curve].
For `Clc1ccc2nc(-c3ccccc3)nc(C(Cl)Cl)c2c1`, the Potency was inconclusive: 44.7 µM [activator, single point].
For `COc1cc(CNC(=O)Nc2nc(C(N)Cc3ccc(Cl)cc3)cs2)cc(OC)c1OC` (configuration not stated), the Potency was inconclusive: 35.5 µM [activator, single point].
For `Cc1ccc(S(=O)(=O)N2c3ccc(F)cc3C[C@H]2CSc2ccccc2)cc1`, the Potency was “inactive”.
With `CCOC(=O)c1ccc(NC(=O)CC2C(=O)N(c3ccccc3)C(=O)N2Cc2cccs2)cc1` (configuration not stated) the Potency was inconclusive: 35.5 µM [activator, single point].
With `Cc1c(C(C)(C)O)[nH]c2cc(C(F)(F)F)ccc12` the Potency was “inactive”.
With `Cc1ccc2cc(CN(CC3CCCO3)C(=S)NCc3ccco3)c(=O)[nH]c2c1C` (configuration not stated) the Potency was inconclusive: 31.6 µM [activator, single point].
In the case of `c1ccc(-c2cn(-c3ccccc3)c3ncnc(N4CCCCC4)c23)cc1`, the Potency is reported as “inactive”.
For `C[C@@H](C(=O)NCCc1c[nH]c2ccccc12)[C@@H]1C[C@@]1(C)[C@@H](NC(=O)OCc1ccccc1)c1ccccc1`, the Potency was inconclusive: 50.1 µM [activator, single point].
With `CC1CCCN(c2c3c(nc4ccccc24)CCCC3)C1` (configuration not stated) the Potency was “inactive”.
For `O=C(CS(=O)c1ccccc1[N+](=O)[O-])Oc1ccc(Br)cc1` (configuration not stated), the Potency was “inactive”.
In the case of `CCc1ccc(CNC(=O)c2ccc(CSc3nc4ccncc4n3Cc3ccccc3)cc2)cc1`, the Potency is reported as inconclusive: 50.1 µM [activator, single point].
In the case of `Cc1cccc(N2Cc3ccc(Br)cc3C2)c1`, the Potency is reported as inconclusive: 3.98 µM [activator, full curve].
In the case of `Nc1nn(-c2ccccc2)c(N)c1N=Nc1ccccc1F`, the Potency is reported as “inactive”.
In the case of `CC1Cc2[nH]c(=S)[nH]c(=O)c2C(C)O1` (configuration not stated), the Potency is reported as “inactive”.
With `CCCCNC(=O)C[C@H]1C(=O)N(Cc2ccc(OC)cc2)C2=CCCCC[C@@]21C(=O)OC` the Potency was “inactive”.
For `Cc1cccc(-c2noc(C3CC(=O)N(c4ccc5c(c4)OCCO5)C3)n2)c1` (configuration not stated), the Potency was inconclusive: 31.6 µM [activator, single point].
In the case of `C[C@@H](C(=O)N[C@H](C(=O)O)c1ccccc1)n1nnc2ccccc2c1=O`, the Potency is reported as “inactive”.
With `Cc1cccc(-n2c(N)cc(=O)nc2SCC(=O)Nc2cc(C)on2)c1` the Potency was inconclusive: 50.1 µM [activator, single point].
In the case of `Cc1onc(-c2ccccc2Cl)c1C(=O)Nc1nnc(-c2ccc(F)cc2)s1`, the Potency is reported as inconclusive: 25.1 µM [activator, single point].
For `CCCCCC(=O)NC1CCCCN(Cc2cccc(Cl)c2)C1=O` (configuration not stated), the Potency was “inactive”.
For `COc1ccc(S[C@]2(C(=O)N3CCN(c4ncccn4)CC3)CC(=O)N(c3ccsc3)[C@@H]2c2ccc(OC)cc2)cc1`, the Potency was inconclusive: 15.8 µM [activator, partial curve, poor fit].
For `COc1cc(NS(=O)(=O)c2ccc(NC(=O)COc3ccc(C)cc3)cc2)nc(OC)n1`, the Potency was inconclusive: 44.7 µM [activator, partial curve, poor fit].
In the case of `COc1cc(SC#N)ccc1N=Cc1c(C)[nH]n(-c2ccc(Cl)cc2)c1=O`, the Potency is reported as “inactive”.
For `CCc1ccc(C(=O)c2cn(CC(=O)Nc3ccc(F)cc3)c3cc4c(cc3c2=O)OCO4)cc1`, the Potency was inconclusive: 39.8 µM [activator, single point].
For `CC(C)C[C@H](NC(=O)c1[nH]cnc1C(=O)N[C@@H](C)c1ccccc1)C(=O)OC(C)(C)C`, the Potency was inconclusive: 22.4 µM [activator, single point].
In the case of `CCOc1ccc(Oc2ccc(S(=O)(=O)N3CCOCC3)cc2NC(=O)C2=COCCO2)cc1`, the Potency is reported as inconclusive: 50.1 µM [activator, single point].
With `COC(=O)c1ccc2nc(-c3ccc(C)cc3)c(Cc3ccc(OC)cc3C)n2c1` the Potency was inconclusive: 25.1 µM [activator, single point].
For `CCCCCCCCN1C(=O)[C@@H](CC(=O)N2CCCC2)C[C@@]2(C(=O)OC)C1=C[C@H](C(C)C)O[C@@H]2C1CC1`, the Potency was active: 12.6 µM.
For `CCOc1ccccc1C1c2[nH]c3ccccc3c2C[C@H]2C(=O)N(C3CCN(Cc4ccccc4)CC3)CC(=O)N12` (some centres not stated), the Potency was inconclusive: 15.8 µM [activator, partial curve, poor fit].
For `Cc1cc(N2CCCC2)nc2ccccc12`, the Potency was inconclusive: 28.2 µM [activator, single point].
For `CCN(CC)CCCNC(=O)c1oc2c(c1C)-c1nn(Cc3ccc(Cl)cc3)cc1CC2`, the Potency was inconclusive: 22.4 µM [activator, partial curve, poor fit].
For `CCOC(=O)c1c(NC(=O)COC(=O)c2ccc(NC(=O)CC#N)cc2)sc(C(=O)NC)c1C`, the Potency was “inactive”.
In the case of `CCOC(=O)N1CCC(NC(=O)CCc2nc(-c3ccccc3F)no2)CC1`, the Potency is reported as inconclusive: 3.16 µM [activator, full curve].
With `CCOC(=O)CN(C(=O)COc1ccc2c(C)cc(=O)oc2c1)c1ccc(OCC)cc1` the Potency was “inactive”.
In the case of `CCCNC(=O)Nc1cc(C(=O)NCc2cccc(OCC)c2)ccc1N1CCCC1`, the Potency is reported as “inactive”.
Potency is read from the fitted curve at half-maximal effect; tags tell the direction and shape of the fitted curve.
